Test results from article PMC4336329 (PLoS ONE, 2015).
In all, about 310,000 compounds went through this assay and about 2,200 (0.71%) showed an effect of 50% or more. Effects have a minus sign here. The list shows a part of the results.

The molecules below were run against human ether-à-go-go-related gene (hERG) potassium channel (human, UniProt Q12809) (assay: primary screen, population patch clamp on CHO cells stably expressing hERG).
Chain of human ether-à-go-go-related gene (hERG) potassium channel (Q12809 whole entry, looked up): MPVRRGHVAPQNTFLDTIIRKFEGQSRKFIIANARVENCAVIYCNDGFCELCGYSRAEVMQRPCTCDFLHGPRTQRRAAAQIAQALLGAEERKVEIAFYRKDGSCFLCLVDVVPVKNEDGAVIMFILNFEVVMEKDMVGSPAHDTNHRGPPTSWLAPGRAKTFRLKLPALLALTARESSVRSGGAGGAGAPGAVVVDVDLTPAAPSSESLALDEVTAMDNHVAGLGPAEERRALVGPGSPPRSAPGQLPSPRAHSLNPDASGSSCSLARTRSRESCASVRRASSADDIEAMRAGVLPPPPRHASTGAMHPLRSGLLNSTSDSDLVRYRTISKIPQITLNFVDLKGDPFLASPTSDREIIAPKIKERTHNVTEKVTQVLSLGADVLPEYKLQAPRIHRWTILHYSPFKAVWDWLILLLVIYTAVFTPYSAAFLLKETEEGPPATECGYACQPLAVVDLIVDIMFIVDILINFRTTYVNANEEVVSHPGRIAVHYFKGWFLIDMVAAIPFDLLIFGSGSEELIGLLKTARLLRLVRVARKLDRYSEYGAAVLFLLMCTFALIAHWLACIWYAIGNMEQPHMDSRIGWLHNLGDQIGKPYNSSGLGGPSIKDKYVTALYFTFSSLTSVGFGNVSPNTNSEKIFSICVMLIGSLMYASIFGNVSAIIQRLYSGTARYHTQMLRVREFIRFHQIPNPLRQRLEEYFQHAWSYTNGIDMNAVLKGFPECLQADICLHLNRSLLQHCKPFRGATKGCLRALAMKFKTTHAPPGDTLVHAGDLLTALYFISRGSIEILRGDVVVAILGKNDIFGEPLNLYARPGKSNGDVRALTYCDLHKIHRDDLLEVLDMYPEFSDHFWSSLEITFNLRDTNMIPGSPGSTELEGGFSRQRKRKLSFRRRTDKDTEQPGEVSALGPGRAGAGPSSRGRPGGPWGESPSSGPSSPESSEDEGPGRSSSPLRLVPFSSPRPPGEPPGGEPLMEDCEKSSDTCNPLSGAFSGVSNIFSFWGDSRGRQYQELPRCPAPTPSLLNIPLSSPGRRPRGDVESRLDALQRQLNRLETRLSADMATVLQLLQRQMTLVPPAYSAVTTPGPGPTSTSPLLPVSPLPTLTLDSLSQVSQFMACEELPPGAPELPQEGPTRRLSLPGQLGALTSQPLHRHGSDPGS

First: O=C(O)/C=C/c1ccc(-c2cccc(C(F)(F)F)c2)o1
Second: CO/N=C/NC(=O)c1c(OC)ccnc1Oc1cccc(C(F)(F)F)c1
The “hERG current change (%, negative = inhibition) at 1uM” value of the first is higher: 9.47% for the first, 5.83% for the second.

Going from `CCc1cc(C(=O)NNC(=S)NC2CCCCC2)cs1` to `N=c1oc2ccc(Cl)cc2cc1C(=O)NC1CCCCCC1`, the “hERG current change (%, negative = inhibition) at 1uM” value rises from 7.88% to 8.26%.

Going from `CCn1ccnc1CN1CCc2c([nH]c3ccccc23)C1CC(C)C` (stereo not shown) to `CC1(C)c2[nH]c3ccccc3c2C[C@@H]2C(=O)N(c3ccc(F)cc3F)C(=O)N21`, the “hERG current change (%, negative = inhibition) at 1uM” value rises from -28.6% to 13.1%.

Compared with `COC(=O)c1ccccc1NC(=O)CSc1nc(-c2ccco2)cc(C(F)(F)F)n1`, `COc1ccc(CCNC(=O)CCSc2nc(-c3ccco3)cc(C(F)(F)F)n2)cc1OC` is higher in “hERG current change (%, negative = inhibition) at 1uM” value: 4.49% for the first, 7.25% for the second.

First: COc1ccc(NC(=O)CC(C)C)c(OC)c1
Second: COc1ccc(CC(=O)Nc2cccc3ccccc23)cc1OC
The “hERG current change (%, negative = inhibition) at 1uM” value of the first is higher: 14.4% for the first, 7.9% for the second.

Going from `CCOP(=O)(OCC)c1ccc2c(c1)C(=O)c1ccccc1CC2` to `Cc1ccc(-c2nc3ccccc3s2)cc1S(=O)(=O)N1CCOCC1`, the “hERG current change (%, negative = inhibition) at 1uM” value falls from 11.6% to -3.04%.

Going from `Cc1ccc(S(=O)(=O)NC(C)C(=O)NC2CCCCCC2)cc1` (stereo not shown) to `CCOc1ccc(NS(=O)(=O)c2ccc(NC(=S)NC(=O)C(C)C)cc2)cc1`, the “hERG current change (%, negative = inhibition) at 1uM” value rises from -2.05% to 13.8%.

Compared with `COC(=O)c1sccc1-c1ccc(/C=N/OC(=O)c2cccs2)o1`, `CCCC(=O)Nc1ccc(NC(=O)c2cccs2)cn1` is higher in “hERG current change (%, negative = inhibition) at 1uM” value: 8.32% for the first, 10.5% for the second.

Going from `O=C(NC(Cc1ccccc1)C(=O)NC1CC1)OCc1ccccc1` (stereo not shown) to `O=C(NCCOc1ccccc1)c1ccccc1`, the “hERG current change (%, negative = inhibition) at 1uM” value falls from 19.2% to 7.22%.

Compared with `O=C(CSc1cn(Cc2ccccc2)c2ccccc12)N1CCOCC1`, `COc1cccc(NC(=S)N(CCCN2CCOCC2)Cc2cn(C)c3ccccc23)c1` is higher in “hERG current change (%, negative = inhibition) at 1uM” value: -4.92% for the first, -0.736% for the second.

Going from `CCOC(=O)c1cnc2c(C)cc(Cl)cc2c1NCCCN1CCOCC1` to `Cc1ccccc1C(=O)OC(C)CN1CCOCC1.Cl` (stereo not shown), the “hERG current change (%, negative = inhibition) at 1uM” value falls from 10.3% to -1.51%.

Going from `COc1cc(C(=O)OCC(=O)c2cc(C)n(C)c2C)cc(NC(=O)c2ccco2)c1OC` to `COc1ccc(NC(=O)c2cc(OC)c(OC)c(OC)c2)cc1S(=O)(=O)N1CCCCC1`, the “hERG current change (%, negative = inhibition) at 1uM” value falls from 16.2% to 13.8%.

First: CS(=O)(=O)N1CCCC(C(=O)NCc2ccco2)C1 (stereo not shown)
Second: O=C(O)C1C2CCC(C2)C1C(=O)NCc1ccccn1 (stereo not shown)
The “hERG current change (%, negative = inhibition) at 1uM” value of the first is lower: 10.9% for the first, 11.7% for the second.

Compared with `O=C(Nc1ccc2c(c1)OCCO2)c1c(F)c(F)c(F)c(F)c1F`, `Cc1cc(C)n2ncc(C(=O)Nc3ccc(Cl)c(Cl)c3)c2n1` is lower in “hERG current change (%, negative = inhibition) at 1uM” value: 14.7% for the first, 2.71% for the second.

Compared with `COc1ccc(N=Cc2c(O)n(C)c(=O)n(C)c2=O)cc1`, `COc1ccc(N2Cc3ccc(OC)c(OC)c3C2=O)cc1` is higher in “hERG current change (%, negative = inhibition) at 1uM” value: 13.3% for the first, 18.3% for the second.

First: CN(C)/N=C/c1cc([N+](=O)[O-])ccc1O
Second: CCOC(=O)c1c(/N=C/c2cc(C)ccc2O)sc2c1CCC2
The “hERG current change (%, negative = inhibition) at 1uM” value of the first is higher: 6.07% for the first, 5.31% for the second.

First: O=C(NCc1nnc2n1CCCCC2)c1ccc(Cl)cc1Cl
Second: O=C(c1ccc(CS(=O)c2cccc(Cl)c2)o1)N1CCCCCC1 (stereo not shown)
The “hERG current change (%, negative = inhibition) at 1uM” value of the first is lower: 7.1% for the first, 16.3% for the second.

Compared with `COc1ccc(-c2csc(NC(=O)COC(=O)Cc3ccc(Cl)cc3Cl)n2)cc1`, `COc1ccc(CNCC(O)(c2ccc(Cl)cc2)c2ccc(Cl)cc2)cc1` is higher in “hERG current change (%, negative = inhibition) at 1uM” value: 3.85% for the first, 5.56% for the second.

Going from `COc1cccc(/C=N/Nc2ncnc3scc(-c4ccccc4)c23)c1O` to `CCc1nnc(NC(=O)CSc2nnc(-c3ccccc3OC)n2-c2ccccc2)s1`, the “hERG current change (%, negative = inhibition) at 1uM” value rises from 3.17% to 5.93%.

First: COc1ccc2[nH]c(=O)c(NC(N)=S)nc2c1
Second: COc1ccc(/C=N/Nc2cc(C)nc3ccc(OC)cc23)c(OC)c1
The “hERG current change (%, negative = inhibition) at 1uM” value of the first is lower: 10.1% for the first, 11.2% for the second.

`CCN1/C(=C/c2ccc3cc(C)ccc3[n+]2CC)Sc2ccc3sccc3c21.[I-]` and `Cc1ccc2cc(C)c(N3CCN(c4ccc(F)cc4)CC3)nc2c1` are the same in “hERG current change (%, negative = inhibition) at 1uM” value: 10.9% for the first, 10.9% for the second.

Going from `O=C(O)CCCCCNC(=O)OCC1c2ccccc2-c2ccccc21` to `CCCCCCC(C)OC(=O)Nc1cccc2ccccc12` (stereo not shown), the “hERG current change (%, negative = inhibition) at 1uM” value rises from 9.82% to 13.9%.

First: Cc1cc(C)c2[nH]c(O)c(N=NC3=NC(=O)CS3)c2c1
Second: Cc1ccnc(-n2c(C)cc(C=O)c2C)c1
The “hERG current change (%, negative = inhibition) at 1uM” value of the first is lower: -4.49% for the first, 12.2% for the second.

First: COCCN(C(=O)COC(=O)c1cccnc1SC)c1c(N)n(Cc2ccccc2)c(=O)[nH]c1=O
Second: CCCCn1c(N)c(N(CCOC)C(=O)C2CC(=O)N(c3ccc(CC)cc3)C2)c(=O)[nH]c1=O (stereo not shown)
The “hERG current change (%, negative = inhibition) at 1uM” value of the first is higher: 7.78% for the first, 5.18% for the second.

First: CCCCNC(=O)CN(c1cc(C(F)(F)F)ccc1Cl)S(C)(=O)=O
Second: O=C(CCNS(=O)(=O)c1ccc(Br)s1)NCc1ccc(F)cc1
The “hERG current change (%, negative = inhibition) at 1uM” value of the first is lower: -0.983% for the first, 8.05% for the second.

First: O=C(NNc1cccc([N+](=O)[O-])c1)/C(=C\c1cccnc1)NC(=O)c1ccccc1
Second: O=C(CC(=O)c1cccc([N+](=O)[O-])c1)Nc1ccccc1Cl
The “hERG current change (%, negative = inhibition) at 1uM” value of the first is higher: 4.41% for the first, -3.62% for the second.

First: C=CCn1c(-c2cccn(Cc3ccc(Cl)cc3Cl)c2=O)n[nH]c1=S
Second: COC(=O)/C(C#N)=C/c1c(Oc2cc(C)cc(C)c2)nc2ccccn2c1=O
The “hERG current change (%, negative = inhibition) at 1uM” value of the first is higher: 9.51% for the first, 7.87% for the second.

First: CSc1nc(N2CCOCC2)c2c(c1C#N)CC(C)(C)OC2
Second: COC(=O)c1ccccc1NC(=O)CNc1cc(Cl)ccc1N1CCOCC1
The “hERG current change (%, negative = inhibition) at 1uM” value of the first is higher: 4.36% for the first, -0.671% for the second.

First: C/C(=N\NC(=S)NC(C)C)c1ccc(-n2ccnc2)cc1
Second: CC(CCc1ccccc1)NC(=O)COC(=O)c1cccn1C (stereo not shown)
The “hERG current change (%, negative = inhibition) at 1uM” value of the first is lower: 6.8% for the first, 9.38% for the second.

Going from `CC1(C(=O)O)CCC(C(=O)Nc2ccc3ccccc3c2)C1(C)C` (stereo not shown) to `COc1cc(NS(=O)(=O)c2ccc(NC(=O)Cc3ccccc3)cc2)nc(OC)n1`, the “hERG current change (%, negative = inhibition) at 1uM” value rises from 5.71% to 11.6%.

Compared with `COc1ccccc1N1C(=O)C=C(Sc2nc(C)cc(C)n2)C1=O`, `COc1ccc(-c2noc(-c3cc4ccccc4oc3=O)n2)cc1` is lower in “hERG current change (%, negative = inhibition) at 1uM” value: 13% for the first, 11.1% for the second.

First: Cc1ccc(OCc2nnc(SCc3ccc(C#N)cc3)n2-c2ccc(C)cc2)cc1
Second: Cc1ccc(OCc2nnc(-c3ccc(Cl)cc3)o2)cc1
The “hERG current change (%, negative = inhibition) at 1uM” value of the first is lower: -4.05% for the first, 12.1% for the second.

Compared with `Cc1ccc(-n2nc(CC#N)c(C#N)c2N)cc1Cl`, `Cc1ccccc1OCCC(=O)OCC(=O)Nc1cc(S(=O)(=O)N2CCOCC2)ccc1Cl` is lower in “hERG current change (%, negative = inhibition) at 1uM” value: 0.858% for the first, -1.26% for the second.

Going from `COc1cc(C)c(CN2CCC(n3nccc3NC(=O)C3CC3)CC2)cc1C` to `Cn1cc(CN2CCC(n3nccc3NC(=O)c3ccccc3Cl)CC2)cn1`, the “hERG current change (%, negative = inhibition) at 1uM” value rises from -30.3% to -4.32%.

Compared with `NS(=O)(=O)c1cc2c(cc1Cl)NCNS2(=O)=O`, `CC(C)c1ccc(S(=O)(=O)N2CCN(C(=O)CN3C(=O)NC(C)(c4ccccc4)C3=O)CC2)cc1` (stereo not shown) is lower in “hERG current change (%, negative = inhibition) at 1uM” value: 2.46% for the first, -1.1% for the second.

Going from `COc1cc2c(cc1OC)C(c1cccs1)N(C(=O)C(C)C)CC2` (stereo not shown) to `COc1ccc(-c2cc(C(=O)Nc3cnn(Cc4ccccc4C)c3)no2)cc1OC`, the “hERG current change (%, negative = inhibition) at 1uM” value rises from -2.58% to -1.78%.

Going from `CC1(C)CC(=O)C([N+](=O)[O-])=C(NCCCO)C1` to `CN1CCN(c2ccccc2NC(=O)c2ccc([N+](=O)[O-])o2)CC1`, the “hERG current change (%, negative = inhibition) at 1uM” value falls from 12.8% to -62.4%.

Going from `COC(=O)Nc1c(C)n(C)n(-c2ccccc2)c1=O` to `CCOC(=O)c1ccccc1NC(=S)N1CCCCC1`, the “hERG current change (%, negative = inhibition) at 1uM” value falls from 3.74% to -2.53%.

Going from `c1ccc2c(-c3nc(-c4ccncc4)no3)cccc2c1` to `COc1ccc(S(=O)(=O)Nc2ccccc2-c2nnn(CC(=O)Nc3ccccc3OC)n2)cc1`, the “hERG current change (%, negative = inhibition) at 1uM” value rises from 5.23% to 6.52%.

Going from `CC1Cc2cc(/C(O)=C3/C(=O)C(=O)N(Cc4cccnc4)C3c3cccc(O)c3)ccc2O1` (stereo not shown) to `Cc1nnc(N2C(=O)C(O)=C(C(=O)c3ccco3)C2c2cccc([N+](=O)[O-])c2)s1` (stereo not shown), the “hERG current change (%, negative = inhibition) at 1uM” value falls from 13.2% to 7.51%.

Going from `COc1ccc(/C=N/NC(=O)COc2cccc3cccnc23)cc1OC` to `COc1ccc(-c2cc(C(F)(F)F)n3nc(C(=O)N4CCCCC4)cc3n2)cc1OC`, the “hERG current change (%, negative = inhibition) at 1uM” value falls from 10.3% to 8.87%.

Going from `N#Cc1cc([N+](=O)[O-])ccc1N1CCN(c2ccccc2O)CC1` to `O=C1NC(=Nc2ccccc2)S/C1=C\c1ccccc1`, the “hERG current change (%, negative = inhibition) at 1uM” value rises from 0.872% to 8.15%.

First: O=C(N/N=C/c1ccccn1)NC12CC3CC(CC(C3)C1)C2
Second: Cc1ccccc1-c1nc(CS(=O)CC(=O)NC(C)CCc2ccccc2)c(C)o1 (stereo not shown)
The “hERG current change (%, negative = inhibition) at 1uM” value of the first is higher: 11.2% for the first, 5.81% for the second.

Going from `CCn1cc(C(=O)N[C@@H](C)C(=O)NCCCn2ccnc2)c(=O)c2cc3c(cc21)OCO3` to `Cc1cc(C)n2nc(CNS(=O)(=O)c3ccc(CC(C)C)cc3)nc2n1`, the “hERG current change (%, negative = inhibition) at 1uM” value falls from 11.2% to 1.86%.
